# Assay results reported in the supplement of paper PMC4604168 (melanoma cell lines).
# Some of the results follow. Most values come without repeats; read them as rough.
# What was measured:
# Assay in all cases: cell count relative to DMSO control; melanoma cells; higher = more viable cells
# Details in all cases: library dose: standard library concentration; 72 h
# G361 = system: G361
# IPC-298 = system: IPC-298
# IST-MEL1 = system: IST-MEL1
# LB2518-MEL = system: LB2518-MEL
# LOXIMVI = system: LOXIMVI
# MEL-HO = system: MEL-HO
# MZ2-MEL = system: MZ2-MEL
# MeWo = system: MeWo
# RPMI7951 = system: RPMI7951
# RVH-421 = system: RVH-421
# SkMel28 = system: SkMel28
# SkMel2 = system: SkMel2
# SkMel30 = system: SkMel30
# SkMel5 = system: SkMel5
# UACC257 = system: UACC257
# UACC62 = system: UACC62
# WM115 = system: WM115
# WM1716 = system: WM1716
# WM3526 = system: WM3526
# 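Note: cells treated in 1,536-well plates, then fixed and DAPI-stained, with nuclei counted from automated high-throughput microscope images.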
SMILES,cell count (G361) [%],cell count (IPC-298) [%],cell count (IST-MEL1) [%],cell count (LB2518-MEL) [%],cell count (LOXIMVI) [%],cell count (MEL-HO) [%],cell count (MZ2-MEL) [%],cell count (MeWo) [%],cell count (RPMI7951) [%],cell count (RVH-421) [%],cell count (SkMel28) [%],cell count (SkMel2) [%],cell count (SkMel30) [%],cell count (SkMel5) [%],cell count (UACC257) [%],cell count (UACC62) [%],cell count (WM115) [%],cell count (WM1716) [%],cell count (WM3526) [%]
"Nc1ccn([C@@H]2O[C@H](CO)[C@@H](O)C2(F)F)c(=O)n1 [gemcitabine] + COc1ccc2c(c1)CCC1C2CCC2(C)C(NCCCCCCN3C(=O)C=CC3=O)CCC12 [U73122] (first compound 0.002 µM, partner dose 2 µM)",35.1,61.7,33.5,74.6,67.7,57.9,82.1,22.8,20.9,70.5,70.3,85.1,80.9,87.4,76.7,57,69.4,74.9,78.2
"Nc1nc(F)nc2c1ncn2[C@@H]1O[C@H](CO)[C@@H](O)[C@@H]1O [fludarabine] + COc1ccc(-c2ccc3c(N4CCOCC4)nc(N4C[C@@H](C)O[C@@H](C)C4)nc3n2)cc1CO [KU0063794] (first compound 1 µM, partner dose 0.1 µM)",88.6,55.1,76.7,77.3,104,78,78.4,74.9,68.2,82,1.81,3.51,25.1,26.7,28.9,77.5,79.4,82.6,28.4
"CC(=O)c1c(C)c2cnc(Nc3ccc(N4CCNCC4)cn3)nc2n(C2CCCC2)c1=O [palbociclib] + c1cc(-c2cnn3cc(-c4ccc(OCCN5CCCCC5)cc4)cnc23)ccn1 [Dorsomorphin] (first compound 0.2 µM, partner dose 2 µM)",56.8,80.5,83.3,67.8,119,81.6,77.3,53.8,70.6,83.1,53.3,86,92.1,52.7,93,56.3,58.6,49.4,59.9
"CC(=O)c1c(C)c2cnc(Nc3ccc(N4CCNCC4)cn3)nc2n(C2CCCC2)c1=O [palbociclib] + O=C(O)C(=O)Nc1sc2c(c1C(=O)O)CCNC2 [TCS401] (first compound 0.2 µM, partner dose 8.33333 µM)",70.3,74.7,60.3,65.9,97.7,72.5,70.2,53,62,77.2,50.9,55.6,87.2,55.2,80.9,74.5,50,32.8,55.2
"Nc1ncn([C@H]2C[C@H](O)[C@@H](CO)O2)c(=O)n1 [decitabine] + CCN(CC)CCCCNc1ncc2cc(-c3cc(OC)cc(OC)c3)c(NC(=O)NC(C)(C)C)nc2n1 [PD173074] (first compound 0.5 µM, partner dose 0.5 µM)",79.8,62,72.2,89.3,83.9,76.8,77.3,58.1,77.4,87.7,83.3,85.3,90.7,73.8,113,75.8,98.8,71,88.8
"Nc1ncn([C@H]2C[C@H](O)[C@@H](CO)O2)c(=O)n1 [decitabine] + O=c1cc(-c2cccc3c2Sc2ccccc2S3)oc(N2CCOCC2)c1 [KU55933] (first compound 0.5 µM, partner dose 5 µM)",70.7,61.4,80,87.3,129,79.5,77.7,50.4,80.4,92.8,56.9,79.2,108,64.8,104,65.2,73.6,79.1,73.6
"Nc1nc(F)nc2c1ncn2[C@@H]1O[C@H](CO)[C@@H](O)[C@@H]1O [fludarabine] + O=C(Nc1ccccc1)c1cc([N+](=O)[O-])ccc1Cl [GW9662] (first compound 1 µM, partner dose 10 µM)",79.5,66.6,88.4,89.4,72.2,74.7,92.7,74.2,56.9,93.1,1.22,1.46,16.6,38.7,25.7,67.8,81.1,118,26.8
"Nc1nc(F)nc2c1ncn2[C@@H]1O[C@H](CO)[C@@H](O)[C@@H]1O [fludarabine] + Cn1cc(/C=C2\C(=O)Nc3cccnc32)c2ccccc21 [GW441756] (first compound 1 µM, partner dose 2 µM)",104,98.7,127,100,114,90.6,86.1,76.2,95.1,127,1.38,3.57,24.3,32.7,38.1,72.6,98.5,106,31.9
"CC(=O)O[C@@]12CO[C@@H]1C[C@H](O)[C@@]1(C)C(=O)[C@H](O)C3=C(C)[C@@H](OC(=O)[C@H](O)[C@@H](NC(=O)OC(C)(C)C)c4ccccc4)C[C@@](O)([C@@H](OC(=O)c4ccccc4)[C@H]21)C3(C)C [Docetaxel] + c1cc(-c2cnn3cc(-c4ccc(OCCN5CCCCC5)cc4)cnc23)ccn1 [Dorsomorphin] (first compound 0.0005 µM, partner dose 2 µM)",15.8,34,44,44.7,60,48.6,32.4,29,31.9,60.7,10.2,26.3,46.9,34.4,62.3,53.4,34.2,30.3,33.2
"CC(=O)c1c(C)c2cnc(Nc3ccc(N4CCNCC4)cn3)nc2n(C2CCCC2)c1=O [palbociclib] + COc1cc(N2CCC(N3CCN(C)CC3)CC2)ccc1Nc1ncc(Cl)c(Nc2ccccc2S(=O)(=O)C(C)C)n1 [NVP-TAE684] (first compound 0.2 µM, partner dose 0.4 µM)",62.3,78.7,63.1,55.6,64.8,66.1,65,41.3,44.9,53.9,47.6,52.9,72.3,51,87.7,59.7,48.6,35.5,50.1
"CC(=O)O[C@@]12CO[C@@H]1C[C@H](O)[C@@]1(C)C(=O)[C@H](O)C3=C(C)[C@@H](OC(=O)[C@H](O)[C@@H](NC(=O)OC(C)(C)C)c4ccccc4)C[C@@](O)([C@@H](OC(=O)c4ccccc4)[C@H]21)C3(C)C [Docetaxel] + COC(=O)c1sccc1S(=O)(=O)Nc1ccc(Nc2ccccc2)cc1OC [GSK0660] (first compound 0.0005 µM, partner dose 5 µM)",12.7,41.2,42.4,28.2,34.4,48.5,41.4,21.7,36.8,55.5,17.6,20.8,36.3,34.3,69.2,58.5,32.8,41.2,41.9
"Nc1nc(F)nc2c1ncn2[C@@H]1O[C@H](CO)[C@@H](O)[C@@H]1O [fludarabine] + Oc1cc(-c2nc(-c3ccccc3)[nH]c2-c2ccncc2)ccc1Cl [L779450] (first compound 1 µM, partner dose 1 µM)",60.2,66,65.5,83.4,93.8,66.3,89.4,68.5,61.6,90.3,1.01,0.861,11.1,23.7,24,41.2,47.9,76,20.7
"CC(=O)c1c(C)c2cnc(Nc3ccc(N4CCNCC4)cn3)nc2n(C2CCCC2)c1=O [palbociclib] + O=C(Nc1ccccc1)c1cc([N+](=O)[O-])ccc1Cl [GW9662] (first compound 0.2 µM, partner dose 10 µM)",52.5,74.1,72,57.3,65.7,68.5,60.1,48.6,72.7,55.3,37.5,66.4,87.6,46.1,71.5,52.7,44,35.9,51.8
"CC(=O)O[C@@]12CO[C@@H]1C[C@H](O)[C@@]1(C)C(=O)[C@H](O)C3=C(C)[C@@H](OC(=O)[C@H](O)[C@@H](NC(=O)OC(C)(C)C)c4ccccc4)C[C@@](O)([C@@H](OC(=O)c4ccccc4)[C@H]21)C3(C)C [Docetaxel] + O=C1NC(=O)/C(=C/c2ccc(-c3ccc(F)cc3O)o2)S1 [AS252424] (first compound 0.0005 µM, partner dose 5 µM)",12.6,45.8,56.2,53.2,48.7,42.4,50.2,25.4,35.7,11.7,15.3,17.8,43.4,39.6,53.3,58.6,39.7,36.1,37
"Nc1ccn([C@@H]2O[C@H](CO)[C@@H](O)C2(F)F)c(=O)n1 [gemcitabine] + O=S(=O)(c1ccccc1)N(CC(F)(F)F)c1ccc(C(O)(C(F)(F)F)C(F)(F)F)cc1 [T0901317] (first compound 0.002 µM, partner dose 7 µM)",61.9,56,45.8,75.1,60.8,61.6,72.5,34.7,66,68.4,74.8,79.5,87.8,53.4,63.4,78.3,68.4,60.5,85.4
"CO[C@H]1C[C@@H]2CC[C@@H](C)[C@@](O)(O2)C(=O)C(=O)N2CCCC[C@H]2C(=O)O[C@H]([C@H](C)C[C@@H]2CC[C@@H](OCCO)[C@H](OC)C2)CC(=O)[C@H](C)/C=C(\C)[C@@H](O)[C@@H](OC)C(=O)[C@H](C)C[C@H](C)/C=C/C=C/C=C/1C [everolimus] + O=c1cc(-c2cccc3c2Sc2ccccc2S3)oc(N2CCOCC2)c1 [KU55933] (first compound 0.1 µM, partner dose 5 µM)",60.1,81.6,83.1,72.4,99.9,77.1,79.9,55.2,76,76.5,55.4,57.4,75.2,68.4,97.5,91.9,60.9,68.5,65.3
